Source: a collection of fitness landscapes (doi:10.1126/science.1257360)
Some of the results follow.

B1: PhoQ; a variant is named by its letters at X, in order, P23837 (parent)
chain: MKKLLRLFFPLSLRVRFLLATAAVVLVLSLAYGMVALIGYSVSFDKTTFRLLRGESNLFYTLAKWENNKLHVELPENIDKQSPTMTLIYDENGQLLWAQRDVPWLMKMIQPDWLKSNGFHEIEADVNDTSLLLSGDHSIQQQLQEVREDDDDAEMTHSVAVNVYPATSRMPKLTIVVVDTIPVELKSSYMVWSWFIYVLSANLLLVIPLLWVAAWWSLRPIEALAKEVRELEEHNRELLNPATTRELTSLVRNLNRLLKSERERYDKYRTTLTDLTHSLKTPLXXLQXXLRSLRSEKMSVSDAEPVMLEQISRISQQIGYYLHRASMRGGTLLSRELHPVAPLLDNLTSALNKVYQRKGVNISLDISPEISFVGEQNDFVEVMGNVLDNACKYCLEFVEISARQTDEHLYIVVEDDGPGIPLSKREVIFDRGQRVDTLRPGQGVGLAVAREITEQYEGKIVAGESMLGGARMEVIFGRQHSAPKDE

Variants of: B1
Experiment: enrichment ratio after two sorts for PhoP signalling (ratio (wild type AVST 3.29)); higher = more functional
Conditions: with PhoP (E. coli)

Variant	enrichment ratio
WKKY	≤ 0.25
NPWP	≤ 0.25
LGIS	≤ 0.25
EQLF	≤ 0.25
YGCN	≤ 0.25
TRTD	≤ 0.25
EHVS	≤ 0.25
NFQR	≤ 0.25
WCEK	≤ 0.25
YPHE	≤ 0.25
MAFL	12.9
GMHY	≤ 0.25
PNLE	≤ 0.25
SGDD	≤ 0.25
EPYS	≤ 0.25
KKSL	≤ 0.25
EAKS	≤ 0.25
RMKT	≤ 0.25
NWTK	≤ 0.25
FPRN	≤ 0.25
YCIR	≤ 0.25
CSCT	≤ 0.25
PQAA	≤ 0.25
PSRP	≤ 0.25
MKQV	≤ 0.25

Variant	enrichment ratio
PVTA	≤ 0.25
TKAM	6.56
VGNK	≤ 0.25
NANP	≤ 0.25
QLDF	≤ 0.25
ANHP	≤ 0.25
EVAC	≤ 0.25
VTDK	≤ 0.25
QRSI	≤ 0.25
MLQI	≤ 0.25
FFPN	≤ 0.25
PSEN	≤ 0.25
VFIS	≤ 0.25
RFLR	≤ 0.25
ATKI	≤ 0.25
PEVH	≤ 0.25
YYTI	≤ 0.25
PRDG	≤ 0.25
GKLC	≤ 0.25
FLSI	≤ 0.25
YFQG	≤ 0.25
NTYM	≤ 0.25
VRDF	≤ 0.25
LMVI	≤ 0.25
LCVN	≤ 0.25

Variant	enrichment ratio
AEPQ	≤ 0.25
EHEY	≤ 0.25
AIHI	≤ 0.25
IYHL	≤ 0.25
GLTN	≤ 0.25
EFPC	≤ 0.25
VFRM	≤ 0.25
SAAN	11.7
GHEI	≤ 0.25
KMTW	≤ 0.25
TQRN	≤ 0.25
HQFM	5.44
IGCR	≤ 0.25
MICM	5.81
GDMS	≤ 0.25
TQIP	≤ 0.25
SFLI	0.615
RYKV	≤ 0.25
TGAP	≤ 0.25
NMWP	≤ 0.25
QYAG	≤ 0.25
MSNC	≤ 0.25
SFST	≤ 0.25
FEHE	≤ 0.25
KCFN	≤ 0.25

Variant	enrichment ratio
HKPM	≤ 0.25
VTMD	≤ 0.25
NVRW	≤ 0.25
RGTC	≤ 0.25
TGMF	9.36
MHSQ	≤ 0.25
DVHL	≤ 0.25
TQYK	≤ 0.25
MTWQ	6.29
MCIF	≤ 0.25
HAEP	≤ 0.25
RCAG	≤ 0.25
HGAK	≤ 0.25
PANK	≤ 0.25
VICH	≤ 0.25
WNAN	≤ 0.25
LMPK	≤ 0.25
HLFR	≤ 0.25
SQKQ	≤ 0.25
FIPM	≤ 0.25
RFFR	≤ 0.25
PWVW	≤ 0.25
AASP	≤ 0.25
HFEL	≤ 0.25
NQYF	≤ 0.25

Variant	enrichment ratio
SRPL	≤ 0.25
TNDW	≤ 0.25
ITCT	≤ 0.25
VVHY	≤ 0.25
VQNL	≤ 0.25
HLFP	≤ 0.25
RITH	≤ 0.25
LRAK	≤ 0.25
MEPI	≤ 0.25
KMTP	≤ 0.25
MQTP	≤ 0.25
DPPF	≤ 0.25
DQYM	≤ 0.25
AHKL	≤ 0.25
FDQR	≤ 0.25
LEEI	≤ 0.25
QDYW	≤ 0.25
TPVW	≤ 0.25
QGIC	≤ 0.25
DLYP	≤ 0.25
ICCM	4.92
LVFP	≤ 0.25
PFEF	≤ 0.25
KVNH	≤ 0.25
ASRN	≤ 0.25

Variant	enrichment ratio
AHRS	≤ 0.25
MGAQ	18.9
DNDS	≤ 0.25
LMWA	≤ 0.25
WPFE	≤ 0.25
VIWQ	≤ 0.25
NNYF	≤ 0.25
QYEI	≤ 0.25
FMCC	0.575
HPMD	≤ 0.25
HMWK	≤ 0.25
NRPE	≤ 0.25
NNKY	≤ 0.25
VHDQ	≤ 0.25
FTKH	≤ 0.25
FDHK	≤ 0.25
AAAG	≤ 0.25
PSWW	≤ 0.25
EDIR	≤ 0.25
WEGG	≤ 0.25
TMGL	7.75
TQDG	≤ 0.25
SWHF	≤ 0.25
YSHV	≤ 0.25
TPAP	≤ 0.25

Variant	enrichment ratio
DNHH	≤ 0.25
LQVN	≤ 0.25
EDIF	≤ 0.25
ERMP	≤ 0.25
WQSM	≤ 0.25
KAKQ	≤ 0.25
WWFP	≤ 0.25
TPSQ	≤ 0.25
LRVK	≤ 0.25
RGCV	≤ 0.25
LDWT	≤ 0.25
TLWE	≤ 0.25
RHIW	≤ 0.25
VCNR	≤ 0.25
MIGG	7.3
YLGQ	≤ 0.25
SDHQ	≤ 0.25
SPRP	≤ 0.25
QMRY	≤ 0.25
CVSW	≤ 0.25
IAHL	≤ 0.25
AWIH	≤ 0.25
IFVR	≤ 0.25
IIIM	≤ 0.25
PLRA	≤ 0.25

Variant	enrichment ratio
LMTT	≤ 0.25
LYIC	≤ 0.25
GLFI	≤ 0.25
HLPA	≤ 0.25
DHTK	≤ 0.25
ARNN	≤ 0.25
IGSE	≤ 0.25
HQIL	≤ 0.25
FFFD	≤ 0.25
MLPP	≤ 0.25
EPVR	≤ 0.25
YHAR	≤ 0.25
FFAV	≤ 0.25
DLRA	≤ 0.25
LSWS	≤ 0.25
YAQK	≤ 0.25
NSNY	≤ 0.25
NTDN	≤ 0.25
YSIT	0.437
YNRR	≤ 0.25
